In all, about 52,000 compounds went through this assay and about 4,300 (8.3%) were called active. No stated cut-off is given here; in the data, active means survival mostly below about 52% (no sharp cut-off); inactive means mostly above about 56%. Some of the results follow.
tested on: DeltatarO mutant; experiment: growth inhibition of S. aureus wild type versus tarO mutant, primary screen, teichoic acid synthesis inhibitors, RN4220, OD600 (AID 463173); conditions: OD600, 18 h, active compounds read low, screened at 18.75 µg/mL (by protocol)

SMILES	survival
O=C(O)c1ccc(N=NN2CCCCC2)cc1	inactive: 75%
COc1cccc(CNC(=O)Cn2c(=O)oc3cc(S(=O)(=O)N4CCC(C)CC4)ccc32)c1	inactive: 124%
CCOC(=O)N1CCN(C(=O)CN(Cc2ccc(F)cc2)S(=O)(=O)c2ccc(C)cc2)CC1	inactive: 87%
CCC(=O)N1CCc2cc(S(=O)(=O)CCC(=O)NCc3ccc(F)cc3)ccc21	inactive: 90%
Cc1cccc(NC(=O)CSc2nnc(-c3ccoc3C)n2CC(C)C)c1C	inactive: 52%
c1ccc2oc(SCc3nc4c5c6c(sc5ncn4n3)CCCC6)nc2c1	inactive: 67%
Cc1c2cnn(CC(=O)Nc3ccc(F)cc3F)c(=O)c2c(C)n1Cc1cccc(Cl)c1	inactive: 89%
CCOC(=O)c1cc2c(=O)n3ccccc3nc2n(Cc2ccco2)c1=NC(=O)c1ccccc1OC	active: 28%
Cc1ccc(NC(=O)C2CCCN(c3nnc(C)c4c(C)n(-c5ccccc5)nc34)C2)cc1Cl (stereo not given)	inactive: 83%
CC1CCCC(C)N1CCNC(=O)c1cn(C(C)c2ccccc2F)nn1 (stereo not given)	inactive: 93%
Cc1cc(C)cc(OCC(=O)Nc2cccc(-c3nc4ccccc4[nH]3)c2)c1	active: 31%
O=C(Cn1c(=O)n(-c2ccc(F)cc2)c(=O)c2sccc21)Nc1cccc(C(F)(F)F)c1	inactive: 55%
COc1ccc(-n2nc3c(c2NC(=O)C(=O)N2CCN(C)CC2)CSC3)cc1	inactive: 83%
CC(C)(C)C(=O)CNS(=O)(=O)c1ccc(S(=O)(=O)N2CCCC2)cc1	inactive: 80%
Cc1ccc(-c2nnn(CC(=O)N(Cc3cccs3)C(C(=O)NCC3CCCO3)c3ccc(F)cc3)n2)o1 (stereo not given)	inactive: 82%
COc1cc(NC(=O)CSc2nc3nc(C)c(Cc4ccccc4)c(C)n3n2)cc(OC)c1	inactive: 112%
CCOc1ccc2nc(N3CCCC(C(=O)NCCc4ccc(SC)cc4)C3)sc2c1 (stereo not given)	inactive: 91%
O=C(NCc1ccccc1)C1CCCN(C(=O)Nc2ccccc2)C1 (stereo not given)	inactive: 102%
O=S(=O)(NC1=NCCS1)c1ccc(N=NN2CCCCC2)cc1	inactive: 75%
CCN(c1ccc(C)cc1C)S(=O)(=O)c1nnc(NC(=O)CC(C)C)s1	inactive: 75%
Cc1ccc(CNC(=O)c2ccc3c(c2)N(Cc2cccc(Cl)c2)C(=O)CS3)cc1	active: 40%
CCn1c(N2CCN(C(=O)Nc3ccc(Cl)c(C(F)(F)F)c3)CC2)nc2ccccc21	active: 0%
Cc1cc(O)c(C(=O)c2cnc3c(c2)COc2ccccc2-3)cc1Cl	inactive: 76%
CCOc1ccc(NC(=O)Cn2cc(C(=O)c3ccc(C)c(C)c3)c(=O)c3cc(F)ccc32)cc1	inactive: 84%
CCC1(C)Cc2ccccc2/C(=C/C(=O)N2CCCCC2)N1 (stereo not given)	inactive: 104%
Cc1ccc(Cl)cc1NC(=O)Cn1c(=O)n(CCC(=O)N2CCc3ccccc3C2)c(=O)c2ccccc21	inactive: 102%
CCOC(=O)c1cnn(-c2cccc(F)c2)c1C1CCNCC1	inactive: 126%
Cc1cccc(NC(=O)Cn2nc(N3CCN(c4ccccc4)CC3)ccc2=O)c1C	inactive: 87%

SMILES	survival
CCOC(=O)c1c(C)sc(-c2c(-c3cc(C)ccc3C)[nH]c3c2c(=O)[nH]c(=O)n3C)c1O	active: 40%
CCOc1ccc(CCNC(=O)Cn2nc(C)c3c(C)n(-c4ccccc4)nc3c2=O)cc1OCC	active: 25%
COc1cc(C(=O)Nc2ccc(-c3cc(C(F)(F)F)nn3-c3ccccc3)cc2)cc(OC)c1OC	inactive: 66%
COc1ccccc1CNc1nc(-c2ccco2)nn1S(=O)(=O)c1ccc(Cl)cc1	inactive: 73%
Cc1ccc(S(=O)(=O)Nc2cc(Cl)c3oc4c(c3c2)C(=O)CC(C)(C)C4)cc1	inactive: 127%
COCCNC(=O)C(=O)Nc1c2c(nn1-c1ccccc1)CS(=O)(=O)C2	inactive: 92%
Cc1ccccc1NC(=O)CSc1nc2ccc(NC(=O)COc3ccccc3F)cc2s1	inactive: 68%
COc1cc(OC)c(NC(=O)Cn2c(=O)cc(C(F)(F)F)c3c(C)nn(C)c32)cc1Cl	inactive: 73%
CCc1ccccc1NC(=O)c1cnn2c(C(F)(F)F)cc(-c3ccc(OC)c(OC)c3)nc12	active: 46%
CCC(Cn1nnc2ccccc2c1=O)NC(=O)Nc1cccc(Cl)c1 (stereo not given)	active: 39%
Cc1ccc(C(=O)N2CCN(c3ccccc3F)CC2)cc1NC(=O)c1nsc2ccccc12	inactive: 66%
COc1ccc(-c2[nH]ncc2C(=O)NCc2ccc(F)cc2)cc1	inactive: 77%
CCc1cccc(NC(=O)Cn2c(=O)n(CC3CCC(C(=O)NCCc4ccccc4)CC3)c(=O)c3ccccc32)c1 (stereo not given)	inactive: 104%
O=C(Nc1ccccc1C(=O)O)c1cccc(S(=O)(=O)N2CCCC2)c1	inactive: 87%
O=C(NCc1ccc(F)cc1)C1CCN(C(=O)c2cnn(-c3ccccc3)c2-n2cccc2)CC1	inactive: 87%
CCCCN(CC)CCCNC(=O)c1cn(C)c2ccc(S(=O)(=O)N(C)C3CCCCC3)cc2c1=O	inactive: 96%
CCOc1cc(C(=O)NCc2ccc3c(c2)CCN3C(=O)CC)cc(OCC)c1OCC	inactive: 72%
Cc1ccccc1NC(=O)CN(C)S(=O)(=O)c1cccc2nsnc12	inactive: 70%
COc1ccc2oc(=O)c(C(=O)N(C)Cc3cccnc3)cc2c1	inactive: 85%
CCCN1C(=O)CN(C2CCCCCC2)C(=O)C1c1ccc(OCC)c(OC)c1 (stereo not given)	inactive: 109%
COCCCNC(=O)c1c(NC(=O)c2cc(=O)c3cc(C)c(C)cc3o2)sc2c1CCCC2	inactive: 121%
COc1ccccc1CCNC(=O)c1cc2ccccn2n1	inactive: 129%
CCCCNc1cc(NC2CCCCC2)c2c3c(onc13)-c1ccccc1C2=O	inactive: 92%
COc1ccc(N2C(=O)C(CC(=O)Nc3ccc(F)cc3)N(CCC3=CCCCC3)C2=O)cc1 (stereo not given)	inactive: 62%
COc1ccccc1CCNC(=O)Cc1c(C)c2c(cc(C)c3c(C)coc32)oc1=O	inactive: 96%
O=C(NC1CC(=O)N(c2cccc(F)c2)C1)C1CCCCC1 (stereo not given)	inactive: 87%
CN(C(=O)Nc1cn(C)c(=O)c2ccccc12)c1ccccc1	active: -5%

— PubChem BioAssay AID463173 (ICCB-Longwood Screening Facility, Harvard Medical School, 2010)
